Source: patent US20230348881A1 (ONCHILLES PHARMA, published 2023)

Molecular target: T1, alpha-1 antitrypsin (A1AT) (human, UniProt P01009)
T1 construct: also called Serpin A1AT
Assay: incubation with A1AT for 30 min at room temperature, Ni-Sepharose purification of his-tagged pro-rPPE, trypsin activation, colorimetric activity assay; inset immunoblot for A1AT
Procedure: To test binding to the Serpin A1AT, the wild-type PPE proprotein (pro-rPPE) with a C-terminal his-tag was incubated in the presence/absence of a 20-fold excess of A1AT for 30 minutes at room temperature. After incubation, pro-rPPE was purified by Ni-Sepharose beads. Purified pro-rPPE was then treated with trypsin for 2 hours at 37° C. to activate the enzyme, and catalytic activity was assessed using a colorimetric activity assay. As a control, pro-rPPE was first activated with trypsin to generate active rPPE and then taken through an identical A1AT-binding/purification procedure. […] In contrast, the protease activity of activated rPPE was attenuated by A1AT when subjected to an identical procedure.

T1 sequence (P01009 25-418 limits assumed): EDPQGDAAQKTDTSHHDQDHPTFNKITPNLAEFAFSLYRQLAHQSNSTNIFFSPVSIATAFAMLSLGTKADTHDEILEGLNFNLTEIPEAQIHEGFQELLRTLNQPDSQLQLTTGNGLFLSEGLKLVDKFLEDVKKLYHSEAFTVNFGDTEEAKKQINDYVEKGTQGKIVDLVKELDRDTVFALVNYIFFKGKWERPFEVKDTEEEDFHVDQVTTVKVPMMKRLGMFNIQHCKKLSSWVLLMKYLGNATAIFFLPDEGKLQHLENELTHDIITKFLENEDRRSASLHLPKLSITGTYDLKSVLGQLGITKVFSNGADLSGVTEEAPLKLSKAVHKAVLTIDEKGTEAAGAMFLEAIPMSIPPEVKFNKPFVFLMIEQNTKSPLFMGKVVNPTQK

B1: wild-type recombinant PPE proprotein (pro-rPPE) with a C-terminal his-tag (enzyme)
chain: TQDFPETNARVVGGTEAQRNSWPSQISLQYRSGSSWAHTCGGTLIRQNWVMTAAHCVDRELTFRVVVGEHNLNQNDGTEQYVGVQKIVVHPYWNTDDVAAGYDIALLRLAQSVTLNSYVQLGVLPRAGTILANNSPCYITGWGLTRTNGQLAQTLQQAYLPTVDYAICSSSSYWGSTVKNSMVCAGGDGVRSGCQGDSGGPLHCLVNGQYAVHGVTSFVSRLGCNVTRKPTVFTRVSAYISWINNVIASN
notes: also called wild-type PPE proprotein; WT PPE proprotein; not shown: C-terminal his-tag
Does B1 bind?
Result: no binding (tested: 20-fold excess of A1AT)
